Experimental data as given in paper PMC4336329 (PLoS ONE, 2015).
Out of some 310,000 compounds screened, about 14,000 (4.5%) showed an effect of 50% or more. Effects have a minus sign here. This is one part of the list.

molecular target: human ether-à-go-go-related gene (hERG) potassium channel (human, UniProt Q12809); assay: primary screen, population patch clamp on CHO cells stably expressing hERG
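Further: peak tail current of the secondary pulse compared with the same well before compound.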

Sequence of human ether-à-go-go-related gene (hERG) potassium channel (Q12809 whole entry, looked up): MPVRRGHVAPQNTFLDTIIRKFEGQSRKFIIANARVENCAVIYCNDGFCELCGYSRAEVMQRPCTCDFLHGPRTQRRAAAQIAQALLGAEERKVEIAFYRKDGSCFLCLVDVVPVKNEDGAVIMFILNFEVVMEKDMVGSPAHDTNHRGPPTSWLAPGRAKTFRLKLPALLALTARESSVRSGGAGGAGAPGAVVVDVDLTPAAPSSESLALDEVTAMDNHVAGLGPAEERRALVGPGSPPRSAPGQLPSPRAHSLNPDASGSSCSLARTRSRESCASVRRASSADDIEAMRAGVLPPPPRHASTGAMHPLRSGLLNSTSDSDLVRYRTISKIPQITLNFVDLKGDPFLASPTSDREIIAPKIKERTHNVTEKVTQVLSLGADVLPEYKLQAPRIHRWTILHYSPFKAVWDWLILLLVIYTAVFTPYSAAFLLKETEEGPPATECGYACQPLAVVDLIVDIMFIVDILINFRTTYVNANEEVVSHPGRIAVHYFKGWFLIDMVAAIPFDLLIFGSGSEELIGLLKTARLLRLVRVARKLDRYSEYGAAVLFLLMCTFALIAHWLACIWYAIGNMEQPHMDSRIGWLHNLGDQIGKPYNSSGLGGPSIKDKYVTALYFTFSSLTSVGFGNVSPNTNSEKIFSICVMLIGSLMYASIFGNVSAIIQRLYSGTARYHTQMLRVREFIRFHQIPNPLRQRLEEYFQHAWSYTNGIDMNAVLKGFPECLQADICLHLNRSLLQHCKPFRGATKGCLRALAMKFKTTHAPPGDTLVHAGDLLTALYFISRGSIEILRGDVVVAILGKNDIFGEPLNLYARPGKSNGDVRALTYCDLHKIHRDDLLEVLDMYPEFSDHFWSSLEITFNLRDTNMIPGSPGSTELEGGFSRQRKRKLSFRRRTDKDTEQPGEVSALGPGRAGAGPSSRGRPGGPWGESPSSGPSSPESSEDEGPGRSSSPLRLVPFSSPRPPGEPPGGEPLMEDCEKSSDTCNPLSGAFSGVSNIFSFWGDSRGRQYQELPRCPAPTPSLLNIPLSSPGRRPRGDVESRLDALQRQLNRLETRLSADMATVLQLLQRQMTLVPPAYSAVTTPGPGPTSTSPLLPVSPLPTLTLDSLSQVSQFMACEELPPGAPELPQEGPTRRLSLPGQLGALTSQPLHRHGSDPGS

Compound	hERG current change (%, negative = inhibition) at 10uM [%]
CCOC(=O)CSc1ncnc2c1cnn2-c1ccc(C)cc1	6.44
CCCCn1nc2cc(C(=O)NC[C@@H]3CCCO3)ccc2c1OCC	8.44
COc1ccc(COCC(O)CN2CCOCC2)cc1OC.Cl (stereo not shown)	20.8
O=C1NC(c2ccncc2)C(C(=O)c2cccs2)C(O)(C(F)(F)F)N1 (stereo not shown)	2.61
O=C(CSc1ccc(-c2ccccc2)nn1)N1CCCc2ccccc21	-23.8
CC(C)c1ccc(OC(=O)NCCO)cc1	-15
CC[C@]12CCCN3CCc4c(n(c5ccccc45)C(=O)C1)C32 (stereo partly shown)	-65.7
CC(C)C(CCNC(=O)CN1C(=O)c2ccccc2C1=O)c1ccco1 (stereo not shown)	-13
COc1ccc(S(=O)(=O)NCC2CCCN(C(=O)CC3CCCC3)C2)cc1 (stereo not shown)	-25
CC(C)[C@H](NC(=O)c1ccccc1)C(=O)O	24.6
CCn1ncc(C2=NOC(C(=O)NCc3ccc(OC)cc3)C2)c1C (stereo not shown)	-2.53
Cc1nn(C)c(=O)c(N)c1-c1cc(-c2ccc(Cl)c(Cl)c2)n[nH]1	11.2
Cc1ccc(-c2cccc(C3CC=CC4C3C(=O)N(Cc3ccccc3)C4c3cc(C)ccc3F)c2)cc1 (stereo not shown)	10.8
CCOC(=O)/C(=C/c1cn(C)c2ccccc12)NC(=O)c1ccccc1	-1.73
Cc1cccc(S(=O)(=O)NC2CCCCCCC2)c1	-6.75
COc1cc(C2NC(=O)N(C)C3=C2C(=O)CCC3)cc(OC)c1OC (stereo not shown)	7.87
CCN(CC)CCCN1CC(=O)N2[C@@H](Cc3c([nH]c4ccccc34)C2(C)C)C1=O	1.24
CCC(=O)Nc1cccc(C2=NOC3(C2)C[C@H](C(N)=O)N(C(=O)Cc2ccc([N+](=O)[O-])cc2)C3)c1 (stereo partly shown)	0.688
CCOc1cc(/C=N/NC(N)=O)ccc1OCC(=O)Nc1ccc(C)c(C)c1	-16.7
Cc1ccc(/C=N\NC(=O)c2csnn2)cc1	3.58
O=C(COC(=O)c1cc(S(=O)(=O)N2CCCCC2)ccc1N1CCOCC1)NC1CCCCC1	-1.4
CCCn1c(NC(=O)c2cccc(C)c2C)nc2ccccc21	-26.7

Compound	hERG current change (%, negative = inhibition) at 10uM [%]
CC(=O)N1CCC2(CC1)C/C(=N\NC(=S)Nc1ccccc1F)c1cc(O)ccc1O2	-69
COc1cccc(CNC(=O)Cn2ccc3cc(S(=O)(=O)N4CCCCCC4)ccc32)c1OC	-22.5
CN(C)C(=O)CN1C(=O)c2cccc3cccc1c23	22.4
CN1CCN(Cc2nc3ccccc3c(=O)[nH]2)CC1	6.57
Cc1ccc(S(=O)(=O)N(C)CC(=O)O/N=C(\N)c2cccnc2)cc1	-0.801
COc1ccc(NC(=O)N2CCCC2C(=O)NCCc2ccccc2)cc1 (stereo not shown)	-19.9
c1ccc(OCc2cc(-c3ccccc3)no2)cc1	21.3
O=C(CCC(=O)Nc1ccc(Cl)cc1Cl)NNC(=O)[C@@H]1CCCC[C@@H]1C(=O)O	20.2
CC(=O)NC1=C(C#N)C(c2ccccc2)c2c(ccc3ccccc23)O1 (stereo not shown)	-2.57
CC(C)NS(=O)(=O)c1ccc(CCC(=O)N2CCc3ccccc3C2)cc1	-11.9
COc1ccc([N+](=O)[O-])cc1C(=O)Nc1ccc(OCC(=O)N2CCOCC2)cc1	-11.8
Oc1cccc(N2Cc3ccccc3C2)c1	14.6
COCCNC(=O)c1ccc2c(=O)n(CCCN3CCCC3=O)c(=S)[nH]c2c1	6.36
COc1ccc(/C=C2\Oc3cc(OC(=O)N4CCOCC4)ccc3C2=O)c(OC)c1	12.9
O=c1[nH]c(=S)n(-c2ccc(Br)cc2)c(O)c1C=Nc1ccc(N2CCOCC2)cc1	-13.5
CCCc1c(C(=O)NNc2ccc(C)cc2)cnn1-c1ccccc1	1.29
O=C(CSc1nc(N2CCOCC2)nc(N2CCOCC2)n1)Nc1ccc(Cl)cc1Cl	-21.8
COc1cc(C(c2c(C)[nH][nH]c2=O)c2c(C)[nH][nH]c2=O)ccc1OC(C)C	40.4
O=C(NCc1n[nH]c(=S)n1-c1ccc(Cl)c(Cl)c1)c1ccc(S(=O)(=O)N2CCOCC2)cc1	14.5
Cc1cccc(C(=O)NCC(=O)N2CCN(S(=O)(=O)c3ccccc3)CC2)c1	-10.8
Cc1ccc(C)c(N(CC(=O)NCc2ccco2)C(=O)CNS(=O)(=O)c2ccc(F)cc2)c1	-8.08
CCSc1nnc(NC(=O)c2ccccc2)s1	-15.4

Compound	hERG current change (%, negative = inhibition) at 10uM [%]
Cn1c(=O)c2c(nc(CN3CCN(c4ccccc4)CC3)n2CCN2CCOCC2)n(C)c1=O	-21.7
Cc1ccc(NC(=S)Nc2ccc3cn[nH]c3c2)c(C)c1	-19.3
O=C(NCc1cccc(Br)c1)C1CC(c2ccc(C(F)(F)F)cc2)=NO1 (stereo not shown)	7.56
CC(=O)NCCc1nc2ccccc2n1Cc1ccccc1	1.05
CCOc1ccc(S(=O)(=O)N(CC(N)=O)c2ccc(C)cc2)cc1	3.12
CS(=O)(=O)c1ccc(C(=O)OCC(=O)NC2CCS(=O)(=O)C2)cc1[N+](=O)[O-] (stereo not shown)	10.3
CC(C)[C@H](NC(=O)c1ccco1)C(=O)OCC(=O)N1CCc2ccccc21	-13.8
O=C(O)c1ccc(CS(=O)(=O)c2c(Cl)cccc2Cl)o1	19
Cn1c(=O)n(C)c2cc([N+](=O)[O-])c(N3CCN(CCO)CC3)cc21	24.9
CC1CC1C(=O)OCC(=O)NNC(=O)c1ccc([N+](=O)[O-])cc1 (stereo not shown)	-2.32
COc1ccc(OC)c(/C=N/N(CCC#N)C2=NS(=O)(=O)c3ccccc32)c1	6.86
CCOc1cc(S(=O)(=O)NCc2ccc(OC)cc2)c(OCC)cc1-n1cnnn1	-8.35
CC(C)NC(=O)c1cc(-c2cccs2)on1	-4.89
COC(=O)COc1ccc(S(=O)(=O)N2CCc3ccccc3C2)cc1C	-4.79
Cl.Clc1ccc(-c2ccc(CNCC3CCCO3)o2)cc1 (stereo not shown)	-62.4
CSc1cccc(CN2CCC(n3nccc3NC(=O)C3CC3)CC2)c1	-51.4
CCCCCCn1c(N2CCN(c3cccc(Cl)c3)CC2)nc2c1c(=O)[nH]c(=O)n2C	-11.7
COc1ccc(-c2ccc3ccccc3n2)cc1OC	3.24
CCCn1nc(C(=O)Nc2cccc(C(=O)OC)c2)c2ccccc2c1=O	-11.3
Cc1ccc(OCC(=O)Oc2c(C)cccc2C)cc1	16.8
Cc1ccc(C(=O)NN2C(=O)/C(=C/c3cn(C)c4ccccc34)SC2=S)cc1	13.6
N#Cc1cc2ccccc2nc1SCc1ccccn1	-5.4

Compound	hERG current change (%, negative = inhibition) at 10uM [%]
COc1cc(OC)cc(C(=O)Nc2ccc(S(=O)(=O)N3CCOCC3)cc2)c1	5.74
COCCN(C(=O)COC(=O)CCC(=O)c1ccc(Cl)cc1)c1c(N)n(Cc2ccccc2)c(=O)[nH]c1=O	-1.48
CC(=O)c1cccc(NC(=O)CSc2ccc(-c3ccco3)nn2)c1	1.79
Br.c1ccc(CN2CCC(N=C3NN=C(c4ccc5c(c4)OCCO5)CS3)CC2)cc1	-43.1
CN(CC(=O)N1CCN(c2ccccc2F)CC1)S(=O)(=O)c1cnc[nH]1	8.33
COc1cccc(-c2c(C(=O)N/N=C/c3ccc(C)s3)nnn2-c2nonc2N)c1	3.44
Oc1cc2c(cc1O)CN(C(=S)NCCc1ccc(Cl)cc1)CCC2	-28.3
Cc1cc2[nH]c(=O)c(=O)[nH]c2cc1S(=O)(=O)N1CCN(c2cccc(C)c2C)CC1	-3.62
CCCc1cc(C(=O)N2CCCC(C(=O)c3cccc4ccccc34)C2)n(C)n1 (stereo not shown)	15.3
C/C(=N/NC(=O)c1cccs1)c1ccc(NC(=O)COc2ccc(Cl)cc2Cl)cc1	7.36
CCOC(=O)CNC(=O)CSc1ncnc2c1cnn2Cc1ccccc1	2.07
Cc1nc(-c2ccc(NC(=O)c3ccccc3C)cc2)cs1	4.58
CN(CCOc1ccc(Cl)cc1)C(=O)Cc1ccc(S(=O)(=O)N2CCOCC2)s1	-73.1
CCCn1c(=O)[nH]c(=O)c2c1nc(-c1ccc(OC(F)(F)C(F)C(F)(F)F)cc1)n2CCOC (stereo not shown)	-21.5
CCC(Nc1ccc(OC)cc1)C(=O)N/N=C/c1ccc([N+](=O)[O-])cc1 (stereo not shown)	-33.3
COc1ccc(OC)c(NC(=S)NCCSc2ccc(C)cc2)c1	-2.84
COc1ccc(-c2nc3c(c(SCC(=O)Nc4cccc(O)c4)n2)Cc2c(CO)cnc(C)c2O3)cc1	18.7
COc1ccc(OC)c(NC(=O)COC(=O)c2nc(Cl)ccc2Cl)c1	10.7
Nc1nnc(SCc2cccc(C(F)(F)F)c2)s1	8.89
